Measurements reported in the supplement of paper PMC10723795.
Where a name gives a salt, the structure may show the parent alone. Some of the results follow.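 Rule for the calls: active = more than 2 SD below the DMSO mean: under 0.85 at 10 µM or 0.885 at 1 µM; inactive = the rest.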 Repeats are few or missing, and single values can be far off.

Tested on: RPE1
Assay: nucleolar normality score relative to DMSO (fraction of DMSO control); RPE1 is a non-cancer human cell line; higher = more normal nucleoli (less nucleolar stress)
Settings: 24 h
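Note: fixed cells immunolabelled for nucleolin and UBF, 40 image fields per well in 384-well plates, per-cell score = nucleolin nucleolar/nucleoplasm intensity ratio divided by the matching UBF ratio.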

SMILES	nucleolar normality score (1 µM)	nucleolar normality score (10 µM)
C[C@H]1[C@@H](O)O[C@@H]2O[C@@]3(C)CC[C@H]4[C@H](C)CC[C@@H]1[C@@]24OO3 [Dihydroartemisinin (DHA)]	inactive: 1.08	inactive: 1.12
CN(C)c1ccc(C(=O)NCCCCCCC(=O)NO)cc1	inactive: 1.1	inactive: 0.889
O=S(=O)(O)c1ccc2cc(N=Nc3cc(S(=O)(=O)O)c4cccnc4c3O)ccc2c1	inactive: 0.952	inactive: 0.997
COc1cc2c(Oc3ccc4[nH]c(C)cc4c3F)ncnc2cc1OCCCN1CCCC1 [Cediranib Maleate]	inactive: 1	inactive: 0.963
COc1cc2c(Oc3ccc4[nH]c(C)cc4c3F)ncnc2cc1OCCCN1CCCC1 [Cediranib (AZD2171)]	inactive: 0.957	inactive: 0.972
CN(C)c1nc(N(C)C)nc(N(C)C)n1 [Altretamine]	inactive: 1.04	inactive: 1.14
CCn1c(=O)c(-c2cc[nH]n2)cc2c(C)nc(N)nc21	inactive: 0.906	inactive: 0.98
COc1cc([C@@H]2c3cc4c(cc3[C@@H](O[C@@H]3O[C@@H]5CO[C@@H](C)O[C@H]5[C@H](O)[C@H]3O)[C@H]3COC(=O)[C@H]23)OCO4)cc(OC)c1O [Etoposide]	inactive: 1.03	inactive: 0.954
CCn1cc(-c2cccc(C(F)(F)F)c2)c2sc(C(=N)NC3CCS(=O)(=O)CC3)cc2c1=O	inactive: 0.934	inactive: 0.969
O=C(O)/C=C/c1ccc(O)cc1 [p-Coumaric Acid]	inactive: 1.05	inactive: 0.92
CC(=O)Nc1nc(C)c(-c2ccc(Cl)c(S(=O)(=O)NCCO)c2)s1	inactive: 1.02	inactive: 0.988
CCC1CC(=Cc2cccnc2)C(=O)C(=Cc2cccnc2)C1 (configuration not stated)	inactive: 1	inactive: 1.1
C=CC(=O)Nc1cccc(Oc2nc(Nc3ccc(N4CCN(C)CC4)cc3OC)ncc2Cl)c1	active: 0.801	active: 0.842
CC(C)CC(CC(=O)NO)C(=O)N[C@@H](Cc1ccc2ccccc2c1)C(=O)N[C@@H](C)C(=O)NCCN (some centres not stated)	inactive: 0.934	inactive: 1.02
CCC(C)C(NC(=O)CNC(=O)C(CC(=O)O)NC(=O)C(CO)NC(=O)C(N)Cc1cnc[nH]1)C(=O)NC(Cc1ccccc1)C(=O)NC(C(=O)NC(CC(=O)O)C(=O)NC(CO)C(=O)NC(Cc1ccc(O)cc1)C(=O)NC(CO)C(=O)NC(CCCNC(=N)N)C(=O)NC(Cc1ccc(O)cc1)C(=O)NC(CCCNC(=N)N)C(=O)NC(CCCCN)C(=O)NC(CCC(N)=O)C(=O)NC(CCSC)C(=O)NC(C)C(=O)NC(C(=O)NC(CCCCN)C(=O)NC(CCCCN)C(=O)C(=O)C(Cc1ccc(O)cc1)NC(=O)C(CC(C)C)NC(=O)C(C)NC(=O)C(C)NC(=O)C(NC(=O)C(CC(C)C)NC(=O)CNC(=O)C(CCCCN)NC(=O)C(CCCNC(=N)N)NC(=O)C(Cc1ccc(O)cc1)NC(=O)C(CCCCN)NC(=O)C(CCC(N)=O)NC(=O)C(CCCNC(=N)N)NC(=O)C(NC(=O)C(CCCCN)NC(=O)C(CC(N)=O)NC(=O)C(CCCCN)NN)C(C)C)C(C)C)C(C)C)C(C)O (configuration not stated)	inactive: 1	inactive: 1.05
Cc1ccccc1CN1C2=NCCN2C(=O)C2=C1CCN(Cc1ccccc1)C2 [TIC10 Analogue]	inactive: 0.997	inactive: 1.04
CC[C@H](C)C(=O)O[C@H]1CCC=C2C=C[C@H](C)[C@H](CC[C@@H]3C[C@@H](O)CC(=O)O3)[C@H]21 [Mevastatin]	inactive: 1.01	active: 0.849
CS(=O)(=O)N1CCc2c(-c3cnc(N)nc3)nc(N3CCOCC3)nc21	active: 0.746	active: 0.62
CC(=O)[C@]1(O)Cc2c(O)c3c(c(O)c2[C@@H](O[C@H]2C[C@H](N)[C@H](O)[C@H](C)O2)C1)C(=O)c1ccccc1C3=O [Idarubicin HCl]	active: 0.569	active: 0.372
c1ccc(CNc2nc(NCc3ccccc3)c3ccccc3n2)cc1	inactive: 1.02	inactive: 1.06
CCCOc1ccn2c(C(C)=O)cc(-c3ccccc3S(C)(=O)=O)c2c1	inactive: 0.994	inactive: 1.1

SMILES	nucleolar normality score (1 µM)	nucleolar normality score (10 µM)
Cc1nc(=O)c2cc(CN(C)c3ccc(C(=O)N[C@@H](CCC(=O)O)C(=O)O)s3)ccc2[nH]1 [Raltitrexed]	inactive: 1	inactive: 0.997
COCC[n+]1c2c(n(Cc3cnccn3)c1C)C(=O)c1ccccc1C2=O [YM155 (Sepantronium Bromide)]	active: 0.35	active: 0.386
O=C(NCCO)c1cccc(-c2cc(Nc3ccc(OC(F)(F)F)cc3)ncn2)c1	inactive: 1	inactive: 1.01
COC(=O)C1=CC[C@@]23CC[C@@H]([C@@](C)(/C=C/C=C(\C)C(=O)O)OC2=O)[C@@]3(OC(C)=O)CC1 [Pseudolaric Acid B]	inactive: 1.03	inactive: 1.03
Cc1cc2c(F)c(Oc3ncnn4cc(OC[C@@H](C)OC(=O)[C@H](C)N)c(C)c34)ccc2[nH]1	inactive: 1.03	inactive: 1.13
O=c1[nH]c(=O)n(C2CCCO2)cc1F (configuration not stated)	inactive: 1.07	inactive: 1.06
CCOC(=O)Nc1cc(-c2ccc(C)c(NS(C)(=O)=O)c2)nn2c(C)nnc12 [Bromosporine]	inactive: 0.964	inactive: 1.05
COc1cc2c3cc1Oc1c(OC)c(OC)cc4c1[C@@H](Cc1ccc(O)c(c1)Oc1ccc(cc1)C[C@@H]3N(C)CC2)N(C)CC4 [Berbamine (dihydrochloride)]	inactive: 0.988	inactive: 1
C#CC[C@H](c1nc2cc(Cl)ccc2c(=O)n1Nc1ccccc1)N(CCCN)C(=O)c1cccc(Cl)c1F	inactive: 0.988	inactive: 0.86
C[C@@H]1CCN(C(=O)CC#N)C[C@@H]1N(C)c1ncnc2[nH]ccc12	inactive: 0.968	inactive: 0.867
Cc1cc(Nc2ncnc3ccc(-c4ccc(CNCCS(C)(=O)=O)o4)cc23)ccc1Oc1ccn2ncnc2c1 [HER2-Inhibitor-1]	inactive: 1	inactive: 0.903
Cc1cc(/N=N/c2ccc(S(=O)(=O)Nc3ccccn3)cc2)c(N)cc1O	inactive: 0.977	inactive: 0.985
COc1cc(O)c(CC=C(C)C)c(O)c1C(=O)/C=C/c1ccc(O)cc1 [Xanthohumol]	inactive: 0.968	inactive: 1.03
CO[C@@]12[C@H](COC(N)=O)C3=C(C(=O)C(C)=C(N)C3=O)N1C[C@@H]1N[C@@H]12 [Mitomycin C]	inactive: 0.942	inactive: 0.917
CCCN(CCC)C(=O)C1=Cc2ccc(-c3ccc(C(=O)N4CCCC4)cc3)cc2N=C(N)C1 [Motolimod (VTX-2337)]	inactive: 0.942	inactive: 0.996
O=C1Nc2ccc(I)cc2C1=Cc1cc(Br)c(O)c(Br)c1	inactive: 0.986	inactive: 0.863
CN(C)CCOc1ccc(/C(=C(/CCCl)c2ccccc2)c2ccccc2)cc1 [Toremifene Citrate]	inactive: 1.03	inactive: 1.06
CNC(=O)[C@H](Cc1c[nH]c2ccccc12)NC(=O)[C@@H](CC(=O)NO)CC(C)C [Ilomastat (GM6001, Galardin)]	inactive: 0.91	inactive: 0.928
COC(=O)CNC(=O)C(=O)OC	inactive: 1.04	inactive: 1.1
CNC(=O)c1cc(COc2nnc(Nc3ccc(Cl)cc3)c3ccoc23)ccn1 [Telatinib]	inactive: 1.06	inactive: 1.14
COc1cc2nccc(Oc3ccc(NC(=O)C4(C(=O)Nc5ccc(F)cc5)CC4)cc3)c2cc1OC [Cabozantinib malate (XL184)]	inactive: 1.05	inactive: 0.94

SMILES	nucleolar normality score (1 µM)	nucleolar normality score (10 µM)
Cc1cc([C@@H](C)Nc2ccccc2C(=O)O)c2nc(N3CCOCC3)cc(=O)n2c1	inactive: 0.965	inactive: 1.05
Cc1cc(C)cc(C(=O)NOCCCCCC(=O)NO)c1	inactive: 1	inactive: 0.96
CC1(C)O[C@@H]2C[C@H]3[C@@H]4CCC5=CC(=O)C=C[C@]5(C)[C@@]4(F)[C@@H](O)C[C@]3(C)[C@]2(C(=O)CO)O1 [Triamcinolone Acetonide]	inactive: 1.02	inactive: 1.06
O=C(O)CCCc1ccccc1 [Sodium Phenylbutyrate]	inactive: 1.07	inactive: 1.08
CC(C)Oc1ccc(C(=O)N[C@H](CNC(=O)CN(C)C)Cc2ccc(-c3cn4cccc([C@H](C)O)c4n3)cc2)cc1Cl	active: 0.781	active: 0.64
CC1(C)OCCn2c1nc1c(N3CCOCC3)nc(-c3cnc(N)nc3)nc12	active: 0.884	active: 0.713
C[C@@H]1C[C@H]2[C@@H]3CCC4=CC(=O)C=C[C@]4(C)[C@@]3(F)[C@@H](O)C[C@]2(C)[C@@]1(O)C(=O)CO [Dexamethasone (DHAP)]	inactive: 0.978	inactive: 1
CN(C(=O)CNC(=O)/C=C/c1cccc(Cl)c1)C1CCS(=O)(=O)CC1	inactive: 0.937	inactive: 0.984
FC(F)c1nc2ccccc2n1-c1nc(N2CCOCC2)nc(N2CCOCC2)n1	inactive: 1.01	inactive: 0.981
COc1ccccc1S(=O)(=O)Nc1ccc2c(c1)CN(C)C(=O)N2	inactive: 1.03	inactive: 1.09
CNC(=O)c1cnn(-c2nc(N)c3ncn([C@@H]4O[C@H](CO)[C@@H](O)[C@H]4O)c3n2)c1 [Regadenoson]	inactive: 1	inactive: 0.947
C=CC(=O)Nc1ccc2ncnc(Nc3cccc(Br)c3)c2c1	inactive: 1.04	inactive: 0.878
CN1CCN(CCOc2cc(OC3CCOCC3)c3c(Nc4c(Cl)ccc5c4OCO5)ncnc3c2)CC1 [Saracatinib (AZD0530)]	inactive: 0.929	inactive: 0.979
COc1nnc2ccc(N3CCC(c4ccc(OCCN5CCN(C)C(=O)[C@H]5C)cc4)CC3)nn12	inactive: 0.956	inactive: 0.909
CCN=C1N[C@@H]2[C@@H](O)[C@H](O)[C@@H](CO)O[C@@H]2S1 [Thiamet G]	inactive: 0.938	inactive: 1.03
O=C(NOC[C@H](O)CO)c1ccc(F)c(F)c1Nc1ccc(I)cc1F	inactive: 0.976	inactive: 0.971
COc1ccc(S(=O)(=O)N(C(C)=O)c2ccccc2/C=C/c2cc[n+]([O-])cc2)cc1	active: 0.827	inactive: 0.908
Cc1nc(-c2cn3c(n2)-c2ccc(-c4cnn(C(C)(C)C(N)=O)c4)cc2OCC3)n(C(C)C)n1 [Taselisib (GDC 0032)]	active: 0.731	active: 0.642
O=C(/C=C/c1ccc(CN(CCO)CCc2c[nH]c3ccccc23)cc1)NO [Dacinostat (LAQ824)]	active: 0.512	active: 0.481
